# Results taken from a collection of fitness landscapes (doi:10.1016/j.celrep.2020.107928).
# Over roughly 81,000 sequences, “one-hybrid fitness for binding parS DNA” has its median near -0.17; the highest 2% begin near 0.51. The list shows a part of the results.
# B1: Caulobacter ParB omega fusion; a variant is named by its letters at X, in order, B8GW30 (parent)
# chain: MESVVVGEPGMSEGRRGLGRGLSALLGEVDAAPAQAPGEQLGGSREAPIEILQRNPDQPRRTFREEDLEDLSNSIREKGVLQPILVRPSPDTAGEYQIVAGERAWRAAQRAGLKTVPIMVRELDDLAVLEIGIIENVQRADLNVLEEALSYKVLMEKFERTQENIAQTIGKSXSHVANXMRLLXLPDEVQSYLVSGELTAXHARAIAAAADPVALAKQIIEGGLSVRETEALARKAPNLSAGKSKGGRPPRVKDTDTQALESDLSSVLGLDVSIDHRGSTGTLTITYATLEQLDDLCNRLTRGI
# Variants of: B1
# Assay: one-hybrid fitness for binding parS DNA (scaled: cognate 1, non-cognate 0); higher = stronger binding
# Conditions: with parS DNA site
# How it was run: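 Fitness is the rescaled log change in variant-to-wild-type read ratio, measured by Illumina sequencing of plasmids before and after bacterial one-hybrid selection. The scale puts cognate at 1 and non-cognate at 0. Selection of Caulobacter ParB libraries, four specificity codons randomised, took place in E. coli USO with a HIS3 reporter, site 19 bp from the promoter, over 48 hours at 37°C on M9-minus-histidine with 0.1 mM IPTG and 5 mM 3-AT.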
row,Variant,one-hybrid fitness for binding parS DNA
1,PMPE,≤ 0.2
2,DRCW,≤ 0.2
3,IWDM,≤ 0.2
4,QRYA,≤ 0.2
5,GNLA,≤ 0.2
6,GILC,≤ 0.2
7,SRIA,≤ 0.2
8,AMLA,≤ 0.2
9,KQLV,≤ 0.2
10,DADR,≤ 0.2
11,NHRR,≤ 0.2
12,HLNR,≤ 0.2
13,KWRT,≤ 0.2
14,LMRG,≤ 0.2
15,QMKY,≤ 0.2
16,VANR,≤ 0.2
17,ANYY,≤ 0.2
18,AQTK,≤ 0.2
19,CYCC,≤ 0.2
20,WIGP,≤ 0.2
21,WLET,≤ 0.2
22,ASIC,≤ 0.2
23,QKQC,≤ 0.2
24,QIMR,≤ 0.2

row,Variant,one-hybrid fitness for binding parS DNA
1,PNKN,≤ 0.2
2,TFHT,≤ 0.2
3,QIWC,≤ 0.2
4,REPL,≤ 0.2
5,YHSL,≤ 0.2
6,KTMT,≤ 0.2
7,FCGS,≤ 0.2
8,SPDT,≤ 0.2
9,QCGF,≤ 0.2
10,APNI,≤ 0.2
11,LKHS,≤ 0.2
12,LNPG,≤ 0.2
13,VLYE,≤ 0.2
14,SLYS,≤ 0.2
15,APPF,≤ 0.2
16,TCPG,≤ 0.2
17,PGKW,≤ 0.2
18,SGFR,≤ 0.2
19,HTVW,≤ 0.2
20,VKLR,≤ 0.2
21,RMQT,0.921
22,NPPF,≤ 0.2
23,ANGR,≤ 0.2
24,SHGN,≤ 0.2

row,Variant,one-hybrid fitness for binding parS DNA
1,LQPD,≤ 0.2
2,LCTL,≤ 0.2
3,TQSD,≤ 0.2
4,WSNM,≤ 0.2
5,VIWS,≤ 0.2
6,AYIK,≤ 0.2
7,RGMT,0.457
8,LTVS,≤ 0.2
9,KDRT,≤ 0.2
10,CSDF,≤ 0.2
11,RTET,0.75
12,RCTE,≤ 0.2
13,RCWG,1.02
14,TSLF,≤ 0.2
15,YDHY,≤ 0.2
16,ACMT,≤ 0.2
17,QGGN,≤ 0.2
18,NHLM,≤ 0.2
19,FLPR,≤ 0.2
20,ACNL,≤ 0.2
21,GTMN,≤ 0.2
22,KKLS,≤ 0.2
23,KTYP,≤ 0.2
24,PGNL,≤ 0.2

row,Variant,one-hybrid fitness for binding parS DNA
1,FKTV,≤ 0.2
2,CPQR,≤ 0.2
3,SRRC,≤ 0.2
4,VNSR,≤ 0.2
5,QYKG,≤ 0.2
6,RTIN,0.355
7,QMWL,≤ 0.2
8,TRVE,≤ 0.2
9,LTNC,≤ 0.2
10,KVRQ,≤ 0.2
11,NGSG,≤ 0.2
12,TGHG,≤ 0.2
13,MWKT,≤ 0.2
14,YADV,≤ 0.2
15,SCFI,≤ 0.2
16,RLIL,≤ 0.2
17,NLRW,≤ 0.2
18,RVIQ,≤ 0.2
19,MIIG,≤ 0.2
20,LGTR,≤ 0.2
21,IQRG,≤ 0.2
22,FPSN,≤ 0.2
23,ETTC,≤ 0.2
24,MMSG,≤ 0.2

row,Variant,one-hybrid fitness for binding parS DNA
1,RPDC,≤ 0.2
2,YLYC,≤ 0.2
3,RWKW,≤ 0.2
4,SQVG,≤ 0.2
5,HMWW,≤ 0.2
6,NSAS,≤ 0.2
7,QPIG,≤ 0.2
8,TWRW,≤ 0.2
9,ALQA,≤ 0.2
10,RLGW,0.241
11,VDKG,≤ 0.2
12,RCEV,≤ 0.2
13,VRAG,≤ 0.2
14,PHIS,≤ 0.2
15,RCFF,0.256
16,PACM,≤ 0.2
17,MQVG,≤ 0.2
18,MCTY,≤ 0.2
19,CFRG,≤ 0.2
20,RAMQ,≤ 0.2
21,SELT,≤ 0.2
22,CHSR,≤ 0.2
23,QSLL,≤ 0.2
24,IPLG,≤ 0.2

row,Variant,one-hybrid fitness for binding parS DNA
1,ACWG,≤ 0.2
2,RGES,0.554
3,PCTI,≤ 0.2
4,RGLN,≤ 0.2
5,FTIT,≤ 0.2
6,CSRS,≤ 0.2
7,SDSE,≤ 0.2
8,SQMV,≤ 0.2
9,VWTG,≤ 0.2
10,EVES,≤ 0.2
11,DSAT,≤ 0.2
12,EGGS,≤ 0.2
13,WMYS,≤ 0.2
14,QHPM,≤ 0.2
15,SIFS,≤ 0.2
16,RQLS,1.02
17,ALHV,≤ 0.2
18,IYCR,≤ 0.2
19,MLPG,≤ 0.2
20,WWTT,≤ 0.2
21,WQTR,≤ 0.2
22,GVCC,≤ 0.2
23,FWLG,≤ 0.2
24,SYNL,≤ 0.2

row,Variant,one-hybrid fitness for binding parS DNA
1,RFMC,0.824
2,DVSG,≤ 0.2
3,VQGC,≤ 0.2
4,AQSP,≤ 0.2
5,YMTE,≤ 0.2
6,CQAK,≤ 0.2
7,MTSC,≤ 0.2
8,PRSC,≤ 0.2
9,ISRS,≤ 0.2
10,DSPK,≤ 0.2
11,RICE,≤ 0.2
12,LVPW,≤ 0.2
13,PVSC,≤ 0.2
14,QKQS,≤ 0.2
15,AAHC,≤ 0.2
16,LRGF,≤ 0.2
17,PKGT,≤ 0.2
18,IYDR,≤ 0.2
19,AFVV,≤ 0.2
20,THNS,≤ 0.2
21,PNVY,≤ 0.2
22,NTCD,≤ 0.2
23,ALDH,≤ 0.2
24,RKYN,0.297

row,Variant,one-hybrid fitness for binding parS DNA
1,WREE,≤ 0.2
2,RSHH,≤ 0.2
3,RCGD,0.208
4,RLAT,0.938
5,AQAE,≤ 0.2
6,MCDR,≤ 0.2
7,DSVY,≤ 0.2
8,HARQ,≤ 0.2
9,MVKG,≤ 0.2
10,QWSF,≤ 0.2
11,FAVC,≤ 0.2
12,DSKM,≤ 0.2
13,PGFP,≤ 0.2
14,RHRV,≤ 0.2
15,VTTG,≤ 0.2
16,ACPM,≤ 0.2
17,SHKY,≤ 0.2
18,SRLC,≤ 0.2
19,NHAL,≤ 0.2
20,CHSW,≤ 0.2
21,GMMG,≤ 0.2
22,VDWG,≤ 0.2
23,TGKG,≤ 0.2
24,RVWI,≤ 0.2

row,Variant,one-hybrid fitness for binding parS DNA
1,ILPS,≤ 0.2
2,KARQ,≤ 0.2
3,WDKR,≤ 0.2
4,VRCA,≤ 0.2
5,QSFQ,≤ 0.2
6,DRRL,≤ 0.2
7,DNPI,≤ 0.2
8,LPIR,≤ 0.2
9,RLAE,≤ 0.2
10,MSRV,≤ 0.2
11,GTLV,≤ 0.2
12,NPHD,≤ 0.2
13,VRLH,≤ 0.2
14,LGHS,≤ 0.2
15,DPAW,≤ 0.2
16,STQV,≤ 0.2
17,PHDF,≤ 0.2
18,RMFK,≤ 0.2
19,NARF,≤ 0.2
20,WEDR,≤ 0.2
21,LLKQ,≤ 0.2
22,GQPI,≤ 0.2
23,YYKV,≤ 0.2
24,NVDT,≤ 0.2

row,Variant,one-hybrid fitness for binding parS DNA
1,PGEY,≤ 0.2
2,PEDV,≤ 0.2
3,QRSR,≤ 0.2
4,QQKS,≤ 0.2
5,GDGC,≤ 0.2
6,TDDL,≤ 0.2
7,FYIS,≤ 0.2
8,FPQT,≤ 0.2
9,PHNC,≤ 0.2
10,VLET,≤ 0.2
11,HWSY,≤ 0.2
12,QGTN,≤ 0.2
13,QWDG,≤ 0.2
14,NPKV,≤ 0.2
15,GFTA,≤ 0.2
16,RFAQ,≤ 0.2
17,DKPG,≤ 0.2
18,QMNK,≤ 0.2
19,IPTA,≤ 0.2
20,FLLV,≤ 0.2
21,CANR,≤ 0.2
22,YRLY,≤ 0.2
23,EELC,≤ 0.2
24,AMKR,≤ 0.2

row,Variant,one-hybrid fitness for binding parS DNA
1,PTMT,≤ 0.2
2,LSPN,≤ 0.2
3,SYPK,≤ 0.2
4,QCIF,≤ 0.2
5,SFTC,≤ 0.2
6,TREC,≤ 0.2
7,RTGW,0.272
8,HVVA,≤ 0.2
9,HCAV,≤ 0.2
10,RICQ,0.256
11,SPKW,≤ 0.2
12,RGWD,≤ 0.2
13,RAVC,0.851
14,IEAS,≤ 0.2
15,PPAW,≤ 0.2
16,KPQT,≤ 0.2
17,HTDF,≤ 0.2
18,VEDL,≤ 0.2
19,ICMF,≤ 0.2
20,WNMR,≤ 0.2
21,GVRM,≤ 0.2
22,MGTC,≤ 0.2
23,STTH,≤ 0.2
24,HWDR,≤ 0.2

row,Variant,one-hybrid fitness for binding parS DNA
1,PLGI,≤ 0.2
2,KGGR,≤ 0.2
3,NPLD,≤ 0.2
4,CHMW,≤ 0.2
5,AHKS,≤ 0.2
6,LRQG,≤ 0.2
7,LFDG,≤ 0.2
8,PNFV,≤ 0.2
9,HYHA,≤ 0.2
10,LHRS,≤ 0.2
11,MRPI,≤ 0.2
12,KQAC,≤ 0.2
13,RGEM,≤ 0.2
14,HGGC,≤ 0.2
15,CGRT,≤ 0.2
16,STES,≤ 0.2
17,QRAE,≤ 0.2
18,ASPP,≤ 0.2
19,MTRS,≤ 0.2
20,AEWS,≤ 0.2
21,LNNL,≤ 0.2
22,NDTF,≤ 0.2
23,YPTR,≤ 0.2
24,LDPG,≤ 0.2

row,Variant,one-hybrid fitness for binding parS DNA
1,DLSV,≤ 0.2
2,FRHR,≤ 0.2
3,RQNT,0.889
4,KTYF,≤ 0.2
5,TSGM,≤ 0.2
6,DPRR,≤ 0.2
7,YKCC,≤ 0.2
8,LSTD,≤ 0.2
9,TEEN,≤ 0.2
10,GRQL,≤ 0.2
11,APAR,≤ 0.2
12,RRTG,0.699
13,TMRR,≤ 0.2
14,NRHE,≤ 0.2
15,SPLS,≤ 0.2
16,PRVL,≤ 0.2
17,SIKG,≤ 0.2
18,DEFR,≤ 0.2
